Laboratory results as given in PubChem BioAssay AID2147 (National Center for Advancing Translational Sciences (NCATS), 2009).
Hit rate of the full screen: of about 230,000 compounds, about 3,600 (1.6%) were called active. Inconclusive means that the source gave no clear call. Such entries were picked first, then a sample of the others. Calls come from the whole dose curve; as a rule, active = well fitted inhibition curve with a large enough effect (not every such curve was filed as active); inconclusive = small, poorly fitted or top-dose-only effect, or another doubt; inactive = no such curve, though single readings can be large or run the other way. Where the call is inconclusive, the potency comes from a doubtful curve fit.

The compounds below were run against Lysine-specific demethylase 4E (Homo sapiens) (UniProt B2RXH2) (assay: qHTS Assay for Inhibitors of Human Jumonji Domain Containing 2E (JMJD2E)). Conditions: JMJD2E catalytic domain, FDH-coupled NADH fluorescence (FDH is formaldehyde dehydrogenase); series mostly up to 57.1 µM; activity change, negative = inhibition: at the top concentration.
Note: nearly all actives have a fitted effect of over 50% in size.
Potency is the fitted concentration of half-maximal effect; tags give direction and shape of the fitted curve.
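Throughout, for activity change, negative = inhibition: 0% = wells with enzyme and -100% = buffer wells without enzyme.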

Sequence of UniProt B2RXH2 (B2RXH2 whole entry, looked up, the tested form may be a part): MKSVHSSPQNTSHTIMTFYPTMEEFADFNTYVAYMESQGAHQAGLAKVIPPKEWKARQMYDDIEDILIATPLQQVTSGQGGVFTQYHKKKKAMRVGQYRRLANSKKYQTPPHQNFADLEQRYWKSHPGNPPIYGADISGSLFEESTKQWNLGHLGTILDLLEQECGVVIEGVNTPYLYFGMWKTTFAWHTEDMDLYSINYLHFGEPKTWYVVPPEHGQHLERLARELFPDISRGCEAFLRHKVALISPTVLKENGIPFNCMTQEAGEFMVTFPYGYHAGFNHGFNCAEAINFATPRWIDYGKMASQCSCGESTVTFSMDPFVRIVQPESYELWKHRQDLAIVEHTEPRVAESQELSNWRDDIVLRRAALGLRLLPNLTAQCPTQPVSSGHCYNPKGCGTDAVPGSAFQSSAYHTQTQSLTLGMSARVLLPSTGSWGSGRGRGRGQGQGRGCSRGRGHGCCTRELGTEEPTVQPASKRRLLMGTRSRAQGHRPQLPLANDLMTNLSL

SMILES | Potency | activity change, negative = inhibition
COC(=O)c1ccc2c(=O)n(-c3ccccc3F)c(=S)[nH]c2c1 | inconclusive: 28.2 µM [inhibitor, partial curve] | 
CCOc1ccc(C(=O)Nc2ccc(S(=O)(=O)N3CCOCC3)cc2)cc1OCC | inconclusive: 28.2 µM [inhibitor, single point] | 
CC(CCc1ccccc1)NC(=O)c1ccc(NC(=O)c2cccc(Br)c2)cc1 (stereo unspecified) | inconclusive: 39.8 µM [inhibitor, single point] | 
Cc1nc(CSc2n[nH]c(=O)n2-c2ccccc2)cs1 |  | inactive: 1.68%
CCOc1ccc(-n2c(O)c(/C=N/Nc3nnc(C)c(=O)[nH]3)c3ccccc3c2=O)cc1 | inconclusive: 31.6 µM [inhibitor, partial curve] | 
CCCN(CCC)CCCNC(=O)c1cc2c(=O)n(C)c3ccccc3c2n1C | inconclusive: 25.1 µM [inhibitor, partial curve] | 
C=CCOc1ccccc1CN1CCCC(CCC(=O)N(C)CCc2ccccn2)C1 (stereo unspecified) |  | inactive: 3.73%
CCn1ccnc1CN(C)Cc1cn(-c2ccc(C)cc2)nc1-c1ccc(F)cc1 | inconclusive: 39.8 µM [inhibitor, single point] | 
O=C(Oc1cc(=O)n2ccccc2n1)c1ccccc1 | inconclusive: 39.8 µM [inhibitor, single point] | 
CC(=O)c1ccc2noc(-c3ccccc3)c2c1 | inconclusive: 28.2 µM [inhibitor, partial curve] | 
CCOC(=O)c1sc(NC(=O)c2cccs2)cc1C | inconclusive: 35.5 µM [inhibitor, single point] | 
CCOC(=O)Cc1c(C)c2ccc(N(CC)CC)cc2oc1=O | inconclusive: 35.5 µM [inhibitor, partial curve] | 
CN1C2C=C3C(C#N)=C(N)C(C#N)(C#N)[C@@H](c4ccsc4)[C@@H]3C1CC2 (stereo partly specified) | inconclusive: 35.5 µM [inhibitor, partial curve] | 
CC1=C(C#N)C(c2cn(-c3ccccc3)nc2-c2cccs2)C(C#N)=C(C)N1 | inconclusive: 31.6 µM [inhibitor, single point] | 
CCCC(=O)NC(NC(=S)Nc1ccc(S(N)(=O)=O)cc1)C(Cl)(Cl)Cl (stereo unspecified) |  | inactive: 0.609%
COc1ccc(/C=C/C(=O)OCC(=O)Nc2ccc(OC)c(S(=O)(=O)N3CCCCC3)c2)cc1 | inconclusive: 39.8 µM [inhibitor, single point] | 
COc1ccc(CCC(C)Nc2cccc(F)c2)cc1 (stereo unspecified) |  | inactive: 7.64%
Cc1ccc2c(c1)N=C(c1ccccc1)CC(C(Cl)Cl)=N2 | inconclusive: 31.6 µM [inhibitor, partial curve] | 
Cc1cc(Cl)c(OCCOCCN2CCC(C)CC2)c(Br)c1 |  | inactive: -26.6%
Cc1cc(C)nc(N2CCC(C(=O)NCc3ccccc3F)CC2)n1 | inconclusive: 8.91 µM [inhibitor, single point] | 
CCN(CC)P(=O)(Nc1cccc(C(F)(F)F)c1)c1ccc(N(C)C)cc1NC(=O)c1ccco1 (stereo unspecified) | inconclusive: 17.8 µM [inhibitor, partial curve] | 
CN1/C(=C/C=N/n2cnnc2)C(C)(C)c2ccccc21 | inconclusive: 11.2 µM [inhibitor, partial curve] | 
NNc1nc2sc3c(c2c(=O)n1Cc1ccccc1)CCC3 |  | inactive: -27.9%
CN(C)S(=O)(=O)c1ccc2[nH]cc(/C=C/c3nc4ccccc4c(=O)n3-c3ccccc3)c2c1 | inconclusive: 3.16 µM [inhibitor, single point] | 

SMILES | Potency | activity change, negative = inhibition
COc1ccc2[nH]c3c(=O)n4c(nc3c2c1)SCC4 | inconclusive: 31.6 µM [inhibitor, partial curve] | 
O=C1C2C(C(=O)N1/N=C/c1cc([N+](=O)[O-])c(O)cc1O)C1C=CC2C12CC2 (stereo unspecified) |  | inactive: -9.64%
O=C(CN1C(=O)NC2(CCCc3ccccc32)C1=O)NCc1ccco1 (stereo unspecified) | inconclusive: 39.8 µM [inhibitor, single point] | 
Cc1cc2nc(C(F)(F)F)cc(-c3cccs3)n2n1 | inconclusive: 31.6 µM [inhibitor, single point] | 
OCC1(CCOc2ccccc2)CCN(C2Cc3ccccc3C2)CC1 |  | inactive: 2.59%
Cn1c(C(=O)N2CCCC2)cc2c(=O)n(C)c3ccccc3c21 |  | inactive: -17.4%
O=C(NCCCN1CCOCC1)c1cc2c(=O)[nH]c3ccccc3c2s1 | inconclusive: 28.2 µM [inhibitor, partial curve] | 
Cc1ccc(C)c(CN2C(=O)C3CCCN3c3ccc(S(=O)(=O)N4CCOCC4)cc32)c1 (stereo unspecified) | inconclusive: 35.5 µM [inhibitor, single point] | 
O=c1[nH]c2cc3c(cc2cc1CN(Cc1cccs1)Cc1nnnn1Cc1ccco1)OCCO3 | inconclusive: 28.2 µM [inhibitor, single point] | 
O=C(N/N=C/c1ccc([N+](=O)[O-])cc1)c1ccc2nc[nH]c2c1 |  | inactive: -4.5%
COc1ccccc1/C=C/C(=O)OCC(=O)NCCC1=CCCCC1 |  | inactive: -11.3%
COc1ccc(/C=N/NC(=O)C(Cc2c[nH]c3ccccc23)NC(=O)OCC(C)C)cc1[N+](=O)[O-] (stereo unspecified) |  | inactive: -25.6%
CC(=O)Oc1ccc(C(=O)[C@H]2[C@H]3C(=O)N(c4ccccc4)C(=O)[C@H]3[C@@H]3C=CC=NN32)cc1 |  | inactive: -4.11%
Cc1cc(NC(=O)c2coc(=O)c(Br)c2)ccc1C(C)C | inconclusive: 0.708 µM [inhibitor, full curve] | 
Cc1cccc(-n2c(C)cc(C(=O)NC3CCCCC3)c2C)c1 |  | inactive: -3.19%
COc1ccccc1N1C(=O)C2CC(C)=C(C)CC2C1=O (stereo unspecified) |  | inactive: 14.4%
COc1cccc(-n2nnc3c(=O)n(Cc4ccccc4Cl)cnc32)c1 | inconclusive: 28.2 µM [inhibitor, single point] | 
Cc1ccc2c(CC(=O)Nc3ccc(N4CCN(C)CC4)cc3C)coc2c1 |  | inactive: 0.884%
Nn1c(SCC(=O)NCCCc2ccccc2)nnc1-c1cccnc1 | inconclusive: 25.1 µM [inhibitor, partial curve, poor fit] | 
COc1cccc2sc(NC(=O)c3ccc(Br)s3)nc12 | inconclusive: 35.5 µM [inhibitor, partial curve] | 
CNc1c([N+](=O)[O-])cnn1-c1ccc(F)cc1 |  | inactive: 3.58%
Cc1nn2c(c1-c1ccc(Cl)cc1)N=C(c1ccco1)CC2c1ccccc1 (stereo unspecified) | inconclusive: 25.1 µM [inhibitor, single point] | 
Brc1ccc(-c2cn3nc4c(nc3n2)CCCC4)cc1 | inconclusive: 28.2 µM [inhibitor, partial curve] | 
Cc1c[nH]c(=O)c([N+](=O)[O-])c1 | inconclusive: 31.6 µM [inhibitor, single point] | 

SMILES | Potency | activity change, negative = inhibition
N#Cc1cccc(C#N)c1N1CCC(C#N)CC1 | inconclusive: 25.1 µM [inhibitor, partial curve] | 
N[C@H](C(=O)O)c1ccc(O)c(C(=O)O)c1 | inconclusive: 35.5 µM [inhibitor, partial curve] | 
CCCS(=O)(=O)N1CCN(CCN2C(=O)c3cccc4cccc(c34)C2=O)CC1 | inconclusive: 28.2 µM [inhibitor, single point] | 
COc1cccc(NC(=O)Cn2c(CCC(=O)O)ccc2-c2ccc(Cl)cc2)c1 | active: 28.2 µM | 
CC(=O)NC1C(O)C[C@@](O)(C(=O)O)OC1[C@@H](O)C(O)CO (stereo partly specified) |  | inactive: 6.4%
O=C(NC1CCS(=O)(=O)C1)c1ccc(-c2ccc(Br)cc2)o1 (stereo unspecified) | inconclusive: 25.1 µM [inhibitor, partial curve] | 
CS(=O)(=O)Nc1ccc(C2=NN(C(=O)c3ccco3)C(c3ccccc3)C2)cc1 (stereo unspecified) |  | inactive: -2.69%
N#C/C(=C\c1coc2ccc(O)cc2c1=O)C(=O)Nc1nc2ccccc2s1 | inconclusive: 31.6 µM [inhibitor, partial curve] | 
N#CCn1cc(/C=N/NC(=O)c2cc3c(ccc4ccccc43)o2)c2ccccc21 | inconclusive: 28.2 µM [inhibitor, partial curve] | 
CCC(c1nnnn1Cc1ccccc1)N(Cc1ccco1)Cc1cc2cc(OC)ccc2[nH]c1=O (stereo unspecified) | inconclusive: 31.6 µM [inhibitor, partial curve] | 
CCc1nn(C)c(-c2n[nH]c(=S)n2N)c1Cl |  | inactive: -8.59%
C=CCc1cccc2cc(C(=O)N3CCN(C(=O)c4ccco4)CC3)c(=O)oc12 | inconclusive: 39.8 µM [inhibitor, single point] | 
CCCCCCCCCC(=O)OCC(O)CO (stereo unspecified) | inconclusive: 39.8 µM [inhibitor, single point] | 
CCOc1cccc(/C=C/c2cc(C(=O)O)c3ccccc3n2)c1OC | inconclusive: 39.8 µM [inhibitor, single point] | 
CC(C)(Oc1ccc(-c2ccco2)cc1)C(=O)O | inconclusive: 35.5 µM [inhibitor, single point] | 
CCC(=O)N(CCO)Cc1cc2ccc(C)c(C)c2[nH]c1=O | inconclusive: 22.4 µM [inhibitor, partial curve] | 
CCOc1ncccc1C(=O)Nc1ccc(-c2cn3ccsc3n2)cc1 | inconclusive: 4.47 µM [inhibitor, full curve] | 
COC(=O)CS(=O)(=O)c1nnc([C@H](Cc2ccccc2)NC(=O)OC(C)(C)C)o1 |  | inactive: -7.48%
CCOC(=O)C1=C(O)c2ccccc2C(=O)/C1=C\c1ccc(CC)cc1 | inconclusive: 3.55 µM [inhibitor, full curve] | 
CCS(=O)CCSc1nc2ccccc2s1 (stereo unspecified) |  | inactive: 6.01%
CC(=O)c1ccc(-c2cccs2)s1 | inconclusive: 28.2 µM [inhibitor, partial curve] | 
CC(C)C(=O)Nc1ccc(N2CCN(c3ccc(F)cc3)CC2)cc1 |  | inactive: 3.46%
O=C(O)Cc1ccc(N=Cc2c(O)ccc3ccccc23)cc1 |  | inactive: 0.642%
